Results taken from PubChem BioAssay (NCI).
Values joined by “and” are separate entries in the source; they are usually repeats but may differ in a detail not shown here. Identical values can stand only once.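 Growth conditions: 96-well plates. Treatment: test compound, 48 hours, 5 concentrations. Analysis: linear interpolation between bracketing concentrations; unreached endpoints set to highest concentration. At the GI50, growth is halved. At the TGI there is no net growth.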 Square brackets hold non-standard residues; d marks the D form. Peptide text beside a SMILES is read from it. * marks the point of attachment. ξ: configuration not given here. ξF = NC(Cc1ccccc1)C(=O)O; Cbz = O=C(OCc1ccccc1)*; Aib = CC(C)(N)C(=O)O

system: NCI-H322M lung; test: DTP human tumour cell line panel, 48 h

| Structure (SMILES) | TGI | GI50 [µM] |
| --- | --- | --- |
| Nc1ccc(O)c2c1C(=O)c1c(N)ccc(O)c1C2=O | > 100 µM | – |
| COC(=O)c1ccccc1CC1Cc2cc3c(cc2C1=O)CCC3 (stereo unspecified) | > 100 µM | – |
| CC1C(=O)CC(c2cccs2)N(N=O)C1c1cccs1 (stereo unspecified) | > 100 µM | – |
| COCCOC1=CC(=O)c2c(O)ccc(O)c2C1=O | 2.76 µM and 3.17 µM | 1.77 |
| CC(O)CN1c2ccccc2Sc2ccccc21 (stereo unspecified) | > 100 µM | – |
| CCN(CC)CC[n+]1ccc2c(C)c3[nH]c4ccc(O)cc4c3c(C)c2c1 | 27.2 µM and 21.4 µM | – |
| Clc1cc(Cl)c2cc3cccc[n+]3cc2c1Cl | 48.4 µM | – |
| CCOC(=O)CNC(=O)C(Cc1ccccc1)NC(=O)C(C)(C)NC(=O)OCc1ccccc1 (stereo unspecified) (Cbz-[Aib]-[ξF]-Gly-OEt) | > 100 µM | – |
| N#Cc1ccc(-c2nc3c(N)nc(-c4ccccc4)nc3o2)cc1 | > 100 µM | – |
| CC(=O)O[C@H]1CCN2C(=O)C=CC(OCc3ccccc3)C12 (stereo partly specified) | > 100 µM | – |
| Cc1ccc(NC(=O)CC/C(CC(=O)C(C)(C)C)=N\NC(=O)C[n+]2ccccc2)cc1C | > 100 µM | – |
| O=c1[nH]c(=O)n(C2CC(O)C(CO)O2)cc1C(F)(C(F)(F)F)C(F)(F)F (stereo unspecified) | > 100 µM | – |
| Cn1cc(-c2nc(-c3c[nH]c4ncccc34)cs2)c2ccccc21 | > 100 µM | 1.29 |
| O=C(N/C(=C\c1cccc([N+](=O)[O-])c1)c1nc2ccccc2[nH]1)c1ccccc1 | > 100 µM | – |
| C=CC(=O)NC(N)=NC#N | 320 µM | – |
| CC(C)(C)c1cc(CCCCCCCC2(CCCCCCCc3cc(C(C)(C)C)cc(C(C)(C)C)c3)OC(COCCOCCCCCC#N)C(COCCOCCCCCC#N)O2)cc(C(C)(C)C)c1 (stereo unspecified) | > 100 µM | – |
| CON(C)C(=O)[C@H]1C[C@@]1(C)CO | > 100 µM | – |
| COc1ccc2[nH]c3c(c2c1)CC(=O)N1CCCC(CC3O)C1 (stereo unspecified) | > 100 µM | – |
| CC1(C)N=C(N)N=C(N)N1c1ccc(OCCCNC(=O)Nc2cccc(S(=O)(=O)F)c2)c(Cl)c1 | > 100 µM | 9.51 |
| COc1ccc(C(=NN=C(N)N)c2ccc(OC)cc2)cc1 | 13 µM | 2.9 |
| C=C(C)[C@@H]1CCC2=C[C@H](C/C(C)=C\C3=CC(C)=C(O3)[C@H]1O)OC2=O | > 100 µM | – |
| CN(Cc1cn(O)c2nc(=N)nc(N)c-2n1)c1ccc(C(=O)NC23CC4CC(CC(C4)C2)C3)cc1 | > 100 µM | – |
| C=C1C(=O)O[C@H]2[C@H](OC(C)=O)[C@@H](C)CCCC3(C)OC3CCC3(CO3)[C@H](O)C[C@@H]12 (stereo partly specified) | 38 µM | 17.8 |
| COc1cc(N2C(=O)[C@H](c3ccccc3)C2c2ccc(SC)cc2)cc(OC)c1OC (stereo partly specified) | > 100 µM | 0.053 |

| Structure (SMILES) | TGI | GI50 [µM] |
| --- | --- | --- |
| Cc1[nH]c(=O)[nH]c(=O)c1/C=C/C(=O)NC(CO)CS(=O)CS(C)=O (stereo unspecified) | 71 µM | – |
| N#CC(C#N)=C1CCOc2ccc(F)cc21 | 54.3 µM | 15.3 |
| COc1cc2c(c(O)c1OC)C(=O)[C@@H]1CCC(=O)N1C2c1ccccc1 (stereo partly specified) | > 100 µM | – |
| CC(=O)OCC1OC(OC2C(COC(C)=O)OC(Sc3ccccc3C)C(OC(C)=O)C2OC(C)=O)C(OC(C)=O)C(OC(C)=O)C1OC(C)=O (stereo unspecified) | > 100 µM | – |
| CCCCCCCCCCCCCCCCCCNc1ccn(C2OC(CO)C(OP(=O)(O)OCC(O)COP(=O)(O)OCC3OC(n4cc(F)c(NCCCCCCCCCCCCCCCCCC)nc4=O)CC3O)C2O)c(=O)n1 (stereo unspecified) | > 50 µM | – |
| CC(=O)c1cc2c(s1)C(=O)c1sccc1C2=O | 0.394 µM | – |
| CC1=NN(C(=O)Nc2ccc(Cl)cc2)C(=O)C2CCC(=O)N12 (stereo unspecified) | > 100 µM | – |
| NC(CCOCCP(=O)(O)CCC1C=CC=CC1)C(=O)O (stereo unspecified) | > 100 µM | – |
| NS(=O)(=O)c1ccc(Nc2c3ccccc3nc3c(C(=O)N4CCN(CCO)CC4)cccc23)cc1 | > 100 µM | – |
| CC(C)[C@@](O)(c1ccc2cc(OC(F)F)c(OC(F)F)cc2c1)c1cn[nH]n1 | 60 µM | 21.8 |
| CCOC(=O)C1(C/C=C/CCl)CCCC1=O (stereo unspecified) | 58.7 µM | – |
| CC(C)CCCC(C)[C@H]1CC[C@H]2n3c(nc4ccccc43)CCC[C@]12C (stereo partly specified) | 37.2 µM | – |
| C=C1C[C@@H]2O[C@H]3[C@H]4[C@@H](C[C@@H](C)[C@@H](OC(C)=O)[C@H]42)[C@@H](C)CO[C@@]3(C)[C@H](OC(=O)CCCCCCC)C[C@H]1O | 33.1 µM | – |
| O=C(NCCC1CN(C(=O)OCc2ccccc2)c2ccccc21)OCc1ccccc1 (stereo unspecified) | > 100 µM | – |
| O=c1oc2ccccc2c(O)c1C(c1cnc2ccccc2c1)c1c(O)c2ccccc2oc1=O | > 100 µM | – |
| C#Cc1cccc(Nc2ncnc3ccc(OCCCCNCCS(C)(=O)=O)cc23)c1 | > 16.2 µM | 0.529 |
| O=C(COc1cccc(/C=C2\CSc3ccc(Cl)cc3C2=O)c1)c1ccc(Cl)cc1 | > 100 µM | 27.1 |
| O=c1cnnc(N/N=C/c2ccccc2O)[nH]1 | > 100 µM | 1.91 |
| C[Si](C)(C)c1ccc(-c2c3ccc(-c4cc(Br)cc(Br)c4)nc3nc3nc(-c4cc(Br)cc(Br)c4)ccc23)cc1 | > 100 µM | – |
| COc1cc2cc(C(=O)N3CC(CCl)c4ccc([N+](=O)[O-])cc43)[nH]c2c(OC)c1OC (stereo unspecified) | > 100 µM | – |
| O=C(c1ccc(C(F)(F)F)c(Cl)c1)N(Cc1ccc(Cl)cc1)c1ccc(-c2cc(C(F)(F)F)[nH]n2)c(O)c1 | 5.31 µM | 1.4 |
| CCOc1ccc(/C=C/c2cc(OC)c(OC)c(OC)c2)cc1 | 19.8 µM | – |
| CC(=O)OCCOCNC(=S)N/N=C/c1cc([N+](=O)[O-])ccc1O | > 100 µM | – |
| C/C(N)=C/C(=O)c1[nH]c(C(=O)O)cc1C1CCN(Cc2ccccc2)C1=O (stereo unspecified) | 78.7 µM | – |

| Structure (SMILES) | TGI | GI50 [µM] |
| --- | --- | --- |
| CC(=O)Nc1cccc(N2C(=O)/C(=C\c3cccc(Oc4ccccc4)c3)S(=O)(=O)C2c2ccccc2)c1 (stereo unspecified) | > 100 µM | – |
| CN(C)C=Nc1c2ccccc2nc2ccccc12 | 35.7 µM | – |
| O=C(NCCCl)Nc1cccnc1 | 42 µM | – |
| NS(=O)(=O)c1ccc(NC(=O)Cc2nc3ccccc3s2)cc1 | 31.8 µM | – |
| O=C(C=P(c1ccccc1)(c1ccccc1)c1ccccc1)CCl | 7.29 µM | 2.31 |
| CC(C)(C)C(=O)Nc1cccc2oc(-c3ccccc3)cc12 | > 100 µM | – |
| C/C=C(/C)C(=O)O[C@H]1[C@H]2[C@@H]([C@@H](OC(C)=O)[C@H](C)C(=O)[C@@]34C[C@@H](C)C(=O)[C@]3(/C=C(\C)[C@H]1OC(C)=O)O4)C2(C)C | > 20 µM | – |
| O=Nc1c(-c2c(O)[nH]c3cc(Br)ccc23)[nH]c2ccccc12 | 4.09 µM | 1.35 |
| c1ccncc1 | > 100 µM | – |
| CSc1ccc2c(cc1=O)[C@@H](NC(=O)c1ccc(Cl)cc1)CCc1cc(O)c(O)c(O)c1-2 | > 100 µM | – |
| Oc1[nH]c(=S)[nH]c1/C=C1/C(c2ccccc2)=Nc2ccccc21 | 31.9 µM | – |
| CCc1n[nH]c(=O)n1/N=C(\C)c1ccc([N+](=O)[O-])cc1 | > 100 µM | – |
| C/C=C/C=C\C=C/C(O)C(C)C(CCC(C)C1OC(=O)C=CC1C)OP(=O)(O)O (stereo unspecified) | 2.09 µM | – |
| COc1ccc2c3c1OC1C(OC)(OC)C=C[C@@]4(Br)[C@@H](C2)N(CC2CC2)CC[C@]314 (stereo partly specified) | > 100 µM | – |
| C[C@@H]1C(=O)O[C@H]1[C@H](O)CO | > 100 µM | – |
| COc1cc([N+](=O)[O-])c(OC)cc1-c1nc2sc(C)cn2c1/C(N)=N/C(=N)N | 56.1 µM | 20.4 |
| Cc1cc(=O)oc2c(CNC(CO)C(=O)O)c(O)ccc12 (stereo unspecified) | > 100 µM | – |
| Cc1c2c(nc3ccccc13)C(=O)c1cccnc1C2=O | > 100 µM | – |
| OC[C@H]1NC[C@@H](O)[C@@H](O)[C@H]1O | > 100 µM | – |
| Cc1[nH]c2ccccc2c1CC/C(=N\Nc1ccccc1)c1ccccc1 | > 100 µM | – |
| OCC(O)CNc1ncnc2ccccc12 (stereo unspecified) | > 100 µM | – |
| O=C(O)c1ccc(C(O)(c2ccccc2)c2ccccc2)cc1 | > 100 µM | – |
| Cn1c(=O)nc2n(-c3ccc(Cl)cc3)c3cc(Cl)ccc3nc-2c1=O | 23.5 µM | – |
